Assay results reported in the supplement of paper PMC10338343.
± gives the standard deviation. This is a selection; strong and weak results do not stand in their true shares.

tested on: MIWI (PIWIL1) piRISC loaded with piRNA #1 (30 nt); test: pre-steady-state target cleavage rate (min^-1); MIWI and MILI are mouse PIWI proteins and EfPiwi is from a freshwater sponge; tags in brackets are library labels; higher = faster piRNA-guided slicing of the target; conditions: guide: piRNA #1 5'p-UGAGGUAGUAGGUUGUAUAGUAUCCAGAGG; auxiliary factor: 500 nM mouse GTSF1
Method in brief: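 Using HEPES–potassium acetate buffer at 33 °C, 1 nM active affinity-purified piRISC with a single synthetic guide was mixed with 0.1 nM transcribed, DNA-blocked target RNA library for 0–8 or 0–960 min, with or without 500 nM GTSF1 partner protein. Uncleaved targets were sequenced and normalised to depth and to weakly complementary targets, and three trials were pooled with k3 capped at 0.0001 min^-1. A burst-and-steady-state fit gave the pre-steady-state cleavage rate.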

Row | Sequence | pre-steady-state target cleavage rate
1 | GGAGACCUAUGAAUUCAACCUACUACCUGA | < 0.0001
2 | GCUCUGGUUACUAUACUACCUACUACCUCA | 1.56 ± 0.1
3 | GGAGACCUAUGUAUACAUCCUAGUACCUCA | 0.00528 ± 0.0014
4 | GGAGAGGAUACUAUACAACCUACUACAUCA | 0.568 ± 0.047
5 | CCUCUGGAUACUAUACAACCAACUACCUCA | 0.235 ± 0.031
6 | GGUCUCGAUACUAUAGAACCUACUACCUCA | 1.04 ± 0.071
7 | GGAGACCUAUGAUAUCAAGGAACUACCUCA | < 0.0001
8 | GGAGUGGAUUCUAUACAAGCUACUACCUCA | 1.08 ± 0.06
9 | CCUCUGGAUACUAUACUUCCUACUACCUCA | 0.317 ± 0.036
10 | GGAGACGAUACUAUACAACGAACUACCUCA | 0.023 ± 0.0031
11 | GGACUGGAUACUAUACAACCACUACCUCA | 0.00431 ± 0.0027
12 | GCUCACCAUACUAUACAACCUACUACCUCA | 1.87 ± 0.13
13 | GGAGACCUAACUAUUCAACCUACUACGUCA | 0.223 ± 0.035
14 | GCUCUGGAUACUAAUGAACCUACUACCUCA | 0.437 ± 0.051
15 | GCACUGGAUACUAUACAACCUACUAGCUCA | 0.243 ± 0.033
16 | GGACUGGAUACAAUACUACCUACUACCUCA | 1.02 ± 0.12
17 | GCUCUGGAUACUAUACAACCUAGUAGCUCA | 0.317 ± 0.072
18 | CCUCUGGUUACUAUACAUCCUACUACCUCA | 1.5 ± 0.066
19 | GGAGACCUAACUAUACAACCUACUAGCCUCA | 0.597 ± 0.051
20 | GGAGACCUUACUAUACUACCUACUACGUCA | 0.291 ± 0.027

Row | Sequence | pre-steady-state target cleavage rate
21 | GGUCACGAUACUAUACAACCUACUACCUCA | 1.89 ± 0.12
22 | GGAGUGCAUUCUAUACAACCUACUACCUCA | 1.32 ± 0.11
23 | GGAGACCAUACUAUACAACCUACUCACCUCA | 0.955 ± 0.067
24 | GGAGACCUAUGAUAUGUUCCUACUACUUCA | < 0.0001
25 | GGAGACGAUACUAUACAACCUACUACCUAA | 1.14 ± 0.074
26 | GGAGACCUUACUAUACAACCAACAACCUCA | 0.00491 ± 0.0019
27 | GGAGACCUAUGAAUAAACCUACUACCUCA | < 0.0001
28 | GCUCUGGAUUACUAUACAACCUACUACCUCA | 1.75 ± 0.11
29 | GCUCUGGAUACUAUACAAGCUUCUACCUCA | 0.218 ± 0.018
30 | GGAGACGAAACUUUACAACCUACUACCUCA | 0.744 ± 0.077
31 | GGAGACCUUACUAUACUACCAACUACCUCA | 0.00369 ± 0.0019
32 | GGAGACCUAACUAUACAACCUAGUACCACA | 0.226 ± 0.055
33 | CCUCUGGAUACUAAACAACGUACUACCUCA | 1.07 ± 0.071
34 | GCUUCUGGAUACUAUACAACCUACUACCUCA | 1.94 ± 0.091
35 | GGAGUGGAUACAAUACAACCAACUACCUCA | 0.116 ± 0.011
36 | GGUCUGGAAACAAUACAACCUACUACCUCA | 1.28 ± 0.1
37 | CCUCUGGAUACAAAACAACCUACUACCUCA | 1.34 ± 0.13
38 | GGAGUGGAUACUACUACAACCUACUACCUCA | 1.42 ± 0.098
39 | GGAGACCAUACUAUAGAACCUACUACCACA | 0.335 ± 0.071
40 | GGAGACCUUACUAAACAACCAACUACCUCA | 0.013 ± 0.0034
